# The supplement of paper PMC11417369
# ± gives the standard deviation of the averaged measurements. Some of the results follow.
# System: PfAP2-I AP2 domain 3 (GST-tagged)
# Test: gcPBM binding intensity (ln(normalized median fluorescence intensity)); higher = stronger DNA binding
# Method in brief: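 Probes on an Agilent 4 × 180k array were primer-extended, double-stranded and 36 bp long, taken from intergenic genomic regions, with negative controls added. GST-tagged P. falciparum DNA-binding domains from E. coli, about 25 μg on average, were applied to the array for 1 h in 1× PBS containing 1% milk, 0.2 mg/ml BSA, 0.5% salmon testes DNA and 0.03% Triton X-100. Binding intensity, obtained after Alexa488 anti-GST antibody detection and a 488 nm scan, is the highest Masliner-normalised natural-log median intensity across replicate spots of either probe orientation.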
row,Sequence,gcPBM binding intensity (ln)
1,TAACATATTTTTAATACACACTTAAAAAAGTACTTA [CACACA_site4875],8 ± 0.34
2,TTAAATTGAATTAGTTAACACACAACTTTTATTTCA [CACACA_site8921],7.5 ± 0.54
3,TCTTCATACGACTAAAAAACATTAGACTGATAAAAA [CACACA_negctrl_site628],7.71 ± 0.45
4,AAATACAAAATTGTTACACACATATTAAGTATGACA [CACACA_site4421],7.38 ± 0.57
5,AGTTTAGAATTTAATACACACAAAAAAAAAAAATTA [CACACA_site7698],7.63 ± 0.36
6,AACGTTCAATTTAAATGTACAAATGTATTTAAATAT [XGTACX_site315],7.68 ± 0.54
7,TTTCTTTTTTCATTTACACACAATAATATAAGAATA [CACACA_site3164],7.94 ± 0.48
8,TACACAAATATATATATATATATATATATATATATA [XGTACX_negctrl_site305],9.55 ± 0.5
9,TATTTATGTTCATATAAACACACGTAAAATTCAAGG [CACACA_site1538],7.92 ± 0.59
10,CATATTCATAAAAGTTGTACATGCAATTTTTTTTTT [XGTACX_site2261],7.71 ± 0.54
11,TCAATAAAAAAAAACGCACACACAAATATATTCCAT [CACACA_site1223],8.18 ± 0.52
12,GTCCCTATAAGGGGAACACACATAAATGGATATATA [CACACA_site6612],7.59 ± 0.52
13,TAAATGGGTGTTAATGCACACGATATGTCTATATAT [CACACA_site5321],10.8 ± 0.67
14,TATTTATTTTTCTGTTGTACTTTTCAACATGTTACA [XGTACX_site7457],7.85 ± 0.61
15,TCTACATATTAATTATGTACGAATTATTATTAGTAA [XGTACX_site6924],7.39 ± 0.23
16,ATACTATATATATAAGTGCATGTTCATTATACCTAA,8.39 ± 0.75
17,ATAACTAAATGATATTGTACAAAATAATTATATATT [XGTACX_site1331],7.7 ± 0.45
18,ATATATATTATGTGTGTGCACTTTTGTTATTATTAT,9.83 ± 0.014
19,CATTATATGATTTATGTGCACATTCATTTATTTTAA,9.48 ± 0.23
20,TATTAATAAAACCGTTGTACTACATACATAAATATT [XGTACX_site5578],7.9 ± 0.44
21,AAAAATCAATTAGAAGAACACACGTAAATTTTTTTT [CACACA_site2396],7.58 ± 0.82
22,TTATAACACATTACATGTACAAATATAAATATATTC [XGTACX_site6503],7.68 ± 0.45
23,AAAAATATATATAACACACACATAATATATATATAT [CACACA_site2537],9.2 ± 0.3

row,Sequence,gcPBM binding intensity (ln)
1,AAAAAAAAAAAAAAATGTACAAAAATTACTATAAAA [XGTACX_site7683],8.05 ± 0.42
2,TTTTTTTTTGTTTACACACACAAAATATTATATGTA [CACACA_site2470],7.79 ± 0.74
3,TATTATTACGTAATATGTACATATATTTATACCACT [XGTACX_site5918],8.09 ± 0.38
4,AGGAAAAACTTGAATGCATGCGCACATTCTAGTTTG [TGCATGCA_site776],7.75 ± 0.92
5,ATAAATACTAGGCACACACACATATATATATATATA [CACACA_site2080],9.33 ± 0.21
6,ATATATATATATATATGTACATATATGTATACCTTA [XGTACX_site6791],9.38 ± 0.67
7,CAATAGTTCTTATGGGTGCAAACCACATATATATAA [GTGCAC_site9606],10.2 ± 0.27
8,TTTATTTATCTGTATACACACTTTAATGAAAAGTTG [CACACA_site5400],7.87 ± 0.49
9,ACAAATCTAAGATAGTGTACATTTATATATATATAT [XGTACX_site8740],9.4 ± 0.24
10,TTTATATACACACAGAAGAACAGAAATATTATATAT [TGCATGCA_negctrl_site483],7.79 ± 0.69
11,AATATAAATAAAAACACACACACACCCATATATATA [CACACA_site2267],8.32 ± 0.66
12,TATATATATATATAAGTGCATATAAAAATCGTTCGT,10.3 ± 0.11
13,ATATATATATAATAAACACACACATATACATATATG [CACACA_site9145],9.04 ± 0.092
14,ATTTTTTTTTTTTTTTTTTTTTTTTGGAGAAAGAGA [CACACA_negctrl_site1119],7.7 ± 0.46
15,TATTTTTTTTTTATATGTACATAATTTCAAATAAAT [XGTACX_site7747],7.97 ± 0.41
16,AAGGATATAACATACACACACACACCGATATATATA [CACACA_site6136],8.21 ± 0.67
17,AAAATTATATATTATTGTACATAAAATTTTGACATA [XGTACX_site4886],7.65 ± 0.51
18,ATAACGATATATGTGCGTACTTATAGAATAAGCAAA [XGTACX_site6743],7.89 ± 0.47
19,ATATATCATATTATAGTGCATTTATAATAATATTAT,10.8 ± 0.13
20,TATTATCTGTAGTGTACACATATTATATAGTACTTT [CACACA_site4582],8.27 ± 0.6
21,TTTTTTTTGTTGTTGTTGCACTTGATAGGAATGGCT [GTGCAC_site9701],9.57 ± 0.057
22,CCATTTACAAAAAGGAGTACACAAATATATGTTTAA [XGTACX_site649],8.1 ± 0.22
23,AAAAAAAACAGACACACACACAAATACATACACAAA [CACACA_site705],7.92 ± 0.4

row,Sequence,gcPBM binding intensity (ln)
1,TACTTACAGATAATAACACACAAGAAAAAAATAAAA [CACACA_site4716],7.92 ± 0.83
2,AATATTTATGGGTGCACACAAACATACAGATATATA [CACACA_site5810],10.7 ± 0.29
3,TATATATATATCAAGTGTACTTGTGTTTGTAATATT [XGTACX_site8854],9.165 ± 0.049
4,TACAAATATGGACACACACACATATTTATATTTATA [CACACA_site6420],7.8 ± 0.41
5,AAAAAACAGACATACACACACACACGGATATTTATA [CACACA_site7570],7.82 ± 0.73
6,ATATAAATGTATATGACACACATATATATATATATA [CACACA_site889],9.31 ± 0.35
7,TTTGAATATATAAATATGCACACTTCTATTATAAAT [CACACA_site3359],8.87 ± 0.35
8,TTCTTATATAAATACACACACAAAATATCTACAATG [CACACA_site4568],7.97 ± 0.33
9,TATTATTTTTCCTAATGTACAAAATATATATTTTTA [XGTACX_site2727],7.8 ± 0.51
10,ATGTTGCACAATGTTACACACACAATATATATCGTT [CACACA_site4833],9.91 ± 0.22
11,TATATTAGAAGAAATTCACACATTCATGTAATCTTA [CACACA_site4706],7.11 ± 0.51
12,AATCGATTGGATAATATTTTTTCTCTTAATTTTTTG [GTGCAC_negctrl_site165],7.43 ± 0.33
13,AAAAAAATAAAAAGGAACGTCTATAGTTAATTTATT [CACACA_negctrl_site919],7.61 ± 0.95
14,AAAATTTTTAAATATTGTACTATTTATTTTTAGCAT [XGTACX_site6190],7.71 ± 0.54
15,TATATATATATATTTACACACATTCATATAAATTCA [CACACA_site3532],9.31 ± 0.22
16,GCCTACAGACTTAGTAGTACATGAGAAGATATATAT [XGTACX_site2269],8 ± 0.59
17,AATATGAACGGACACACACACACAAAAAAAAAAAAA [CACACA_site5154],8.06 ± 0.5
18,TATATTTATTTATATACACACACTTGTATAAAAAAT [CACACA_site2036],7.87 ± 0.41
19,TATCTATATGGGAACACACTCATAAATATATATCTA [CACACA_site4815],7.59 ± 0.47
20,TATATCAAAATACATACACACATTTGTATATACATT [CACACA_site2696],7.78 ± 0.48
21,TATATACAGAAACACACACACACATATATATATATA [CACACA_site2247],9.31 ± 0.34
22,AAAATAAATAAATACACACACACGAATATATATATA [CACACA_site1683],8.99 ± 0.17
23,TTTTAAAAATAATAAATAAATAAAATTGAAGTTCCA [CACACA_negctrl_site305],7.21 ± 0.71

row,Sequence,gcPBM binding intensity (ln)
1,GGTCTTATTTTTAGTAGTACAAATATAATATACATA [XGTACX_site6483],8.1 ± 0.25
2,TTTTTTTTTTTTTGTTGTACCCATCATATATACATA [XGTACX_site4342],8.21 ± 0.57
3,TATAAAAATATTTAATGTACGAATCTGTGATATATC [XGTACX_site7881],7.71 ± 0.39
4,AAAATACACGCATACACACACACACGCGCACATATA [CACACA_site6448],8.37 ± 0.64
5,TTTTCATGTTGTAAAGCATGCTTTACTCATAAAAAA [TGCATGCA_site917],7.9 ± 0.59
6,ATTATTAAAAGAAGAAGTACTTATATATTAATATTA [XGTACX_site5227],7.71 ± 0.4
7,CTAAACAGAATTATCACACATATAAATATAAACATA [CACACA_site4560],7.56 ± 0.47
8,ATATATTACATATGTGTGCACGTTCCAAAATTTTTA,10.2 ± 0.23
9,TTATTTTATTTTGAAGCATGCTTTTTGCTGTGATAA [TGCATGCA_site278],7.53 ± 0.66
10,AAATAATATTTATACACACACACATATTTATATACA [CACACA_site6403],7.91 ± 0.64
11,TTATGCGTTTGCAAAAGTACATATCTATTATTTTTA [XGTACX_site7609],7.72 ± 0.5
12,ATTGTATATGTATATGCACACAATATATGTACTTAT [CACACA_site2611],8.97 ± 0.18
13,GATATATTATTTGAATGTACATATTATATTTATATT [XGTACX_site907],7.71 ± 0.25
14,TAACATATTATATATACATGCATACGTGAACTAATC [TGCATGCA_site888],8.11 ± 0.71
15,GTTAGAATTGTTAGGTGGTCAAAAAGGAGAAAAAAA [XGTACX_site2086],8.35 ± 0.35
16,TTTTTTTAGTTAATTAAACACACAAAAAAAAAAATA [CACACA_site9301],7.65 ± 0.48
17,ATTATTTAATTTTATTAAAAAAAAACAAATTAACAG [GTGCAC_negctrl_site152],7.61 ± 0.38
18,AAAAGAAAATTAAATTAACACACATAAATATATATA [CACACA_site8482],7.91 ± 0.58
19,TTCACATACAGAAACACACACATATTTATAAATTAA [CACACA_site7699],7.79 ± 0.54
20,TTTTGATATAAATATTAGATTAATAAATAAAAAAAT [CACACA_negctrl_site1635],7.8 ± 0.39
21,TTAAAATAGATATTAGTGCAAAAAAAAAAAAATAAA,10.7 ± 0.23
